# Data: PubChem BioAssay AID651687 (Broad Institute, 2012)
# Values joined by “and” are separate entries in the source; they are usually repeats but may differ in a detail not shown here. Equal values may be shown once. Out of some 350,000 compounds screened, about 600 (0.17%) were called active. The shares of active, inactive and inconclusive entries below differ from those in the screen.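 How the source made its calls: active means every replicate shows inhibition of at least 40%; inconclusive means mean inhibition at least 40% but some replicate below; inactive means the rest.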
# Test: inhibitors of PGC1a acetylation signal, primary screen, cell-based, U2OS, AlphaScreen, inhibitor mode (AID 651687);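 further: 0% = neutral control wells and 100% = positive control wells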
# Conditions: AlphaScreen anti-acetyl-lysine, at 15.6 µM, stronger effect = higher value, with virally co-expressed GCN5 acetyltransferase
row,SMILES,inhibition
1,C[C@H](CO)N1C[C@H](C)[C@H](CN(C)C(=O)Nc2cccc3ccccc23)Oc2ccc(NC(=O)CCCN(C)C)cc2C1=O,inactive: -4.17%
2,Cc1cc(C(=O)OCC(=O)N(C)c2ccccc2)ccc1[N+](=O)[O-],inconclusive: 52.4%
3,O=C(Nc1cccc(F)c1)C1CCN(S(=O)(=O)c2cccc3nonc23)CC1,inconclusive: 57.1%
4,Cc1ccc2c(=O)c(CN3CCCCCC3)c(C)[nH]c2c1C,inactive: 7.12%
5,CS(=O)(=O)N(CC(=O)N1CCN(c2ccccc2)CC1)c1cccc(Br)c1,inconclusive: 43.4%
6,Oc1ccc(Cl)cc1C1=Nc2ccccc2N=C(c2ccco2)C1,inactive: 7.66%
7,O=S1(=O)CCC(N=Cc2ccc(-c3ccc(Cl)cc3)o2)C1 (centres undefined),inconclusive: 44.2%
8,COCc1cn(CC[C@@H]2CC[C@H](NC(=O)c3ccc(F)cc3)[C@H](CO)O2)nn1,inactive: -0.758%
9,Cn1c(SCc2ccon2)nc2ccccc2c1=O,inconclusive: 48.8%
10,CC(=O)Nc1ccc2c(c1)C(=O)N(c1ccc(C)cc1)C2=O,inactive: 20.3%
11,O=C(C[C@@H]1C[C@@H]2c3cc(NC(=O)Nc4ccccc4F)ccc3O[C@@H]2[C@@H](CO)O1)NCc1ccc(Oc2ccccc2)cc1,active: 83.8%
12,COc1ccc(NC(=O)c2ccc3c(c2)OCO3)cc1Cl,inconclusive: 42%
13,O=C(CCN1CCCCC1)N[C@H]1CC[C@H](CC(=O)N2CCC(Cc3ccccc3)CC2)O[C@@H]1CO,inactive: 8.88%
14,O=C(C[C@@H]1C[C@@H]2c3cc(NC(=O)Nc4ccccc4F)ccc3O[C@@H]2[C@H](CO)O1)NCc1ccc(Oc2ccccc2)cc1,inconclusive: 41.5%
15,COc1cccc(C(=O)Nc2ccc3c(c2)C(=O)N(C)C[C@@H](OC)[C@H](C)CN(C)[C@@H](C)CO3)c1,inactive: -4.25%
16,Fc1ccc(CN(Cc2ccccc2)C(c2cccs2)c2nnnn2C2CCCCC2)cc1 (centres undefined),inconclusive: 42%
17,CO/N=C/C(C(C)=O)C(=O)Nc1ccc(Cl)cc1Cl (centres undefined),inactive: 4.56%
18,CC(=O)Cc1nsc(NC(=O)c2cccc(F)c2)n1,inconclusive: 44.1%
19,O=C(C[C@@H]1C[C@H]2c3cc(NC(=O)NC4CCCC4)ccc3O[C@H]2[C@@H](CO)O1)NC1CCCC1,inactive: -1.69%
20,C[C@@H]1CN([C@@H](C)CO)C(=O)c2cc(C#Cc3ccccc3)cnc2O[C@@H]1CN(C)C(=O)c1ccccn1,inactive: 2.94%
21,O=C(Cc1ccccn1)NCC[C@@H]1CC[C@@H](NC(=O)Nc2ccc(C(F)(F)F)cc2)[C@@H](CO)O1,active: 45.5%
22,CC(=O)N(Cc1ccc(F)cc1)C1=C(NCCc2ccccc2)C(=O)c2ccccc2C1=O,inconclusive: 84.3%
23,CCOc1ccc(S(=O)(=O)N(C)c2ccc(OCC(=O)N3c4ccc(C)cc4C4CN(C)CCC43)cc2)cc1 (centres undefined),active: 75.1%
24,C[C@H]1CN([C@@H](C)CO)C(=O)c2cccc(NS(=O)(=O)c3ccc(F)cc3)c2O[C@H]1CN(C)Cc1ccc(Oc2ccccc2)cc1,inactive: 7.58%
25,CC(C)NC(=O)N(C)C[C@H]1OCCCC[C@@H](C)Oc2ccc(NC(=O)Cc3ccccc3)cc2C(=O)N([C@@H](C)CO)C[C@H]1C,inconclusive: 55.2%

row,SMILES,inhibition
1,COc1ccc(NC(=O)N(C)C[C@@H]2OCCCC[C@@H](C)Oc3ccc(NC(=O)Cc4ccccc4)cc3C(=O)N([C@H](C)CO)C[C@@H]2C)cc1,inconclusive: 51.2%
2,CCOC(=O)c1ccc(N2C(=O)C=CC2=O)cc1,inconclusive: 45.7%
3,Cc1ccc(NC(=O)C2C(c3ccccc3)C2(Cl)Cl)c(C)c1 (centres undefined),active: 70.6%
4,C[C@@H]1CN([C@H](C)CO)C(=O)c2cc(NC(=O)Nc3ccc(F)cc3)ccc2O[C@@H](C)CCCCO[C@@H]1CN(C)C(=O)NC1CCCCC1,inconclusive: 52.6%
5,C=C[C@H]1CN2CCC1C[C@H]2[C@H](O)c1ccnc2ccc(OC)cc12 (some centres undefined),inconclusive: 48%
6,CCOC(=O)C1=C(CS(=O)(=O)c2ccccc2)NC(=O)NC1c1ccc(O)c(OC)c1 (centres undefined),inconclusive: 52.4%
7,COCCNC(=O)CN1CCC(NC(=O)C(C)(C)C)CC1,inconclusive: 44.6%
8,CO[C@H]1CN(C)C(=O)c2ccc(NC(=O)C3CC3)cc2OC[C@@H](C)NC[C@@H]1C,inactive: 24.6%
9,CC1CCCCC12NC(=O)N(CC(=O)NCc1ccc3c(c1)OCO3)C2=O (centres undefined),inconclusive: 45.9%
10,CCCNC(=O)Nc1ccc2c(c1)C(=O)N(C)C[C@@H](OC)[C@H](C)CN(CC1CCCC1)[C@H](C)CO2,inactive: 18.5%
11,O=C(NC1CCCCC1)C1CCN(C(=O)NCc2ccccc2)CC1,inactive: -5.14%
12,CN(C)C(=O)c1cccc(-c2ccc3c(c2)[C@H]2[C@H](CCN2C(=O)Cc2ccccn2)[C@@H](CO)N3C)c1,inactive: -5.05%
13,O=C(O)C1CCCN1S(=O)(=O)c1cc(Cl)ccc1Cl (centres undefined),inconclusive: 42.5%
14,Cc1ccc(-c2ccc(C3[C@@H]4CN(C(=O)Nc5ccc(C(F)(F)F)cc5)C[C@H]3N4)cc2)cc1 (some centres undefined),inconclusive: 53.8% and active: 69.7%
15,COCC(=O)Nc1ccc2c(c1)OC[C@@H](C)N(CCc1ccccc1)C[C@H](C)[C@@H](OC)CN(C)C2=O,inconclusive: 52.2%
16,CC(=O)c1ccc(N2CCN(C(=O)Cc3cccs3)CC2)cc1,inactive: -18.5%
17,C=CCOC(=O)C1=C(C)NC(SCC)=C(C#N)C1c1ccc(Cl)cc1 (centres undefined),inconclusive: 44.7%
18,CCOC(=O)c1cc(CC)sc1NC(=O)CCC(=O)O,inactive: -36.8%
19,O=C(Cc1ccccn1)NCC[C@H]1CC[C@H](NC(=O)Nc2ccc(C(F)(F)F)cc2)[C@H](CO)O1,active: 48.1%
20,COc1ccc(Cn2nnnc2CN(Cc2cc3ccc(C)cc3[nH]c2=O)C2CCCC2)cc1,active: 42.1%
21,O=C(OCc1nnc(-c2ccccc2)o1)C1=COCCO1,active: 60.9%
22,OCC1OC(Oc2c(Br)cc(Br)cc2Br)C(O)C(O)C1O (centres undefined),active: 62.8%
23,CCCNC(=O)CN(C)C(=O)c1n[nH]c2ccccc12,inconclusive: 42.6%
24,COc1ccccc1CN1CCCC(C(=O)N(C)Cc2ccccc2)C1 (centres undefined),active: 45%
25,O=C(Nc1ccc(F)cc1)c1ccc(C(=O)N2CCOCC2)cc1,inactive: 2.89%

row,SMILES,inhibition
1,O=C(C[C@H]1CC[C@H](NC(=O)NC2CCCCC2)[C@H](CO)O1)NCc1ccc(Cl)cc1,active: 53.6%
2,O=C(C[C@@H]1CC[C@@H]2NC[C@H](O)COC[C@H]2O1)NCCc1ccccc1,inactive: 0.74%
3,CC(C)NC(=O)N(C)C[C@H]1Oc2c(NS(=O)(=O)c3cn(C)cn3)cccc2C(=O)N([C@@H](C)CO)C[C@@H]1C,inconclusive: 44.5%
4,C[C@H](CO)N1C[C@H](C)[C@H](CN(C)S(=O)(=O)c2ccccc2C#N)OCc2cnnn2CCCC1=O,inconclusive: 41.4%
5,O=C(C[C@@H]1CC[C@@H](NS(=O)(=O)c2ccc(F)cc2)[C@H](CO)O1)N1CCN(c2ccccc2)CC1,inconclusive: 48.6%
6,CN1OC[C@@H]2CN(S(=O)(=O)c3cccc4ccccc34)[C@H](c3ccc(N4CCCCC4)cc3)C[C@@H]21,inconclusive: 47.9%
7,C[C@@H]1CCCCO[C@H](CN(C)C(=O)c2ccccc2)[C@@H](C)CN([C@@H](C)CO)C(=O)c2cc(NC(=O)Nc3ccc4c(c3)OCO4)ccc2O1,inactive: -11.7%
8,O=C(CSc1nc2c(sc3ccccc32)c(=O)n1CCc1ccccc1)NCc1ccco1,inconclusive: 57.3%
9,OCCNCCOc1ccccc1-c1ccccc1,inactive: -1.7%
10,CN(C)c1ccc(O)c2c1CC1CC3[C@@H](N(C)C)C(=O)C(C(N)=O)C(=O)[C@]3(O)C(=O)C1C2=O (some centres undefined),inactive: -3.07%
11,CCOC(=O)CSc1nc2cc3c(cc2cc1C#N)OCCO3,inconclusive: 40.3%
12,C[C@@H]1CN([C@@H](C)CO)C(=O)Cc2cc(NC(=O)Cc3ccccc3)ccc2O[C@@H]1CN(C)S(=O)(=O)c1cn(C)cn1,inactive: 3.17%
13,O=C1/C(=C\c2ccc(Cl)c(Cl)c2)CN(C(=O)CCN2CCOCC2)C/C1=C/c1ccc(Cl)c(Cl)c1,inconclusive: 53.7%
14,CC(c1n[nH]c(=S)n1Cc1ccccc1)N(C)C (centres undefined),inconclusive: 50.4%
15,Cc1cc(-c2ccc(Cl)cc2)n2ncnc2n1,inconclusive: 48.2%
16,O=C1/C(=C\c2ccco2)SC(=S)N1Cc1ccccc1,inconclusive: 41.1%
17,CO[C@H]1CN(C)C(=O)c2cc(NC(=O)C3CC3)ccc2OC[C@@H](C)NC[C@@H]1C,inactive: -18.2%
18,COc1ccccc1Oc1ccc2c(c1)C(=O)N(c1ccc(C)cc1)C2=O,active: 104%
19,CC(=O)OCCn1c(C)[n+](CCOC(C)=O)c2cc(Cl)c(Cl)cc21,inconclusive: 47.4%
20,CCNC(=O)C[C@@H]1CC[C@H]2[C@@H](COC[C@H](O)CN2C(=O)c2cccnc2)O1,inactive: -7.12%
21,CO[C@@H]1CN(C)C(=O)c2cc(NS(=O)(=O)c3ccc(Cl)cc3)ccc2OC[C@H](C)N(C)C[C@H]1C,inconclusive: 60.1%
22,Cc1noc(C)c1NC(=O)Nc1cccc2c1O[C@H](CN(C)Cc1ccc(Oc3ccccc3)cc1)[C@H](C)CN([C@@H](C)CO)C2=O,active: 99.9%
23,COc1ccc(C2CC(c3cccc(F)c3)=NN2c2ccc(S(N)(=O)=O)cc2)cc1 (centres undefined),inactive: -6.75%
24,O=C(COc1ccccc1)N1CCN=C1SCc1ccccc1,inconclusive: 42.6%
